Reference: publication PMC4336329 (PLoS ONE, 2015)
The whole screen tested about 310,000 compounds, of which about 14,000 (4.5%) showed an effect of 50% or more. The effect is printed as a negative number. Some of the results follow.

Target: human ether-à-go-go-related gene (hERG) potassium channel (human, UniProt Q12809)
Test: primary screen, population patch clamp on CHO cells stably expressing hERG
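Also: peak tail current of the secondary pulse compared with the same well before compound.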

human ether-à-go-go-related gene (hERG) potassium channel, sequence (Q12809 whole entry, looked up): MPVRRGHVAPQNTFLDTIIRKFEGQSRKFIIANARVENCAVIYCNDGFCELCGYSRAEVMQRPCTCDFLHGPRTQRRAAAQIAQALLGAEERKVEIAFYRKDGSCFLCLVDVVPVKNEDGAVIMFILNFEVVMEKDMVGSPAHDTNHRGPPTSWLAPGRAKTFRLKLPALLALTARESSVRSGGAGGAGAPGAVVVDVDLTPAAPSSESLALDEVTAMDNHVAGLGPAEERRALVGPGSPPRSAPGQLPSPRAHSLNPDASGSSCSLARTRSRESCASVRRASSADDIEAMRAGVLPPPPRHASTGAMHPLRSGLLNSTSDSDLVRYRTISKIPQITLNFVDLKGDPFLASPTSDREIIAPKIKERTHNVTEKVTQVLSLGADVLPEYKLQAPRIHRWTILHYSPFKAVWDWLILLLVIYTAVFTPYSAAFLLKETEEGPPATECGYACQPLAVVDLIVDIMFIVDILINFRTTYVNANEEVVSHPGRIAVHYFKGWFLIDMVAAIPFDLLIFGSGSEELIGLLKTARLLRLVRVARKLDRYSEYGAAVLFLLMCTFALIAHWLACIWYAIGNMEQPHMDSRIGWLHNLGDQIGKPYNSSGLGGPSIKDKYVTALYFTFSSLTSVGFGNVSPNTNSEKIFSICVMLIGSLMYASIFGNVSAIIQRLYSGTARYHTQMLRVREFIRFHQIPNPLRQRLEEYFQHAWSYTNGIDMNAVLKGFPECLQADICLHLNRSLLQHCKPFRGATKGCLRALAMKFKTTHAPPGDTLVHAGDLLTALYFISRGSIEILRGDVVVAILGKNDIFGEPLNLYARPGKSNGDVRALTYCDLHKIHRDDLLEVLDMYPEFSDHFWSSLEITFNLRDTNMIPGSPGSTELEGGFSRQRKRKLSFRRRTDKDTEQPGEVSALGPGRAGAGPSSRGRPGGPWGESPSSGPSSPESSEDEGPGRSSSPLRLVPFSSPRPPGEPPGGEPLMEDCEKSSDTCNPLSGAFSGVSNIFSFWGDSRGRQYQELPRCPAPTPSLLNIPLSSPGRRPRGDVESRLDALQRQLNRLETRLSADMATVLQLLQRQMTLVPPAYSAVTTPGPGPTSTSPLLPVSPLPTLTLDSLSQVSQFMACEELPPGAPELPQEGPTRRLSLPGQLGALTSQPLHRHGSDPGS

| SMILES | hERG current change (%, negative = inhibition) at 10uM [%] |
| --- | --- |
| CS(=O)(=O)N(CC(=O)Nc1cccc(Br)c1)Cc1ccccc1 | 1.84 |
| Cc1cc(C)nc(SCCC(=O)N(C)C)n1 | 9.46 |
| COc1ccc(/C=N/OCC(=O)N=Nc2c(O)[nH]c3ccc(Br)cc23)cc1 | 17.4 |
| COC(=O)c1sc2nc3c(cc2c1N)COC(C)(C)C3 | -9.7 |
| Cc1ccc2nc(Nc3ccc(F)cc3)c3nncn3c2c1 | 12.8 |
| CCC(=O)NC(=S)Nc1cccc(NC(=O)c2ccccc2)c1 | -1.7 |
| Cl.OCCNCC1(O)C2CC3CC(C2)CC1C3 (stereo not shown) | 12.6 |
| C=CCNC(=S)NNC(=O)c1ccc(=O)n(Cc2ccccc2)c1 | 25.8 |
| COC(=O)c1ccccc1NC(=O)c1cc(-c2cccs2)on1 | -0.963 |
| Fc1ccccc1C1c2cccn2CCN1C(=S)Nc1cccc(Br)c1 (stereo not shown) | 12.9 |
| Cc1ccc(S(=O)(=O)c2nc(-c3ccccc3Cl)oc2NCCCN2CCOCC2)cc1 | -49.8 |
| COc1ccc(-c2noc(=O)[nH]2)cc1 | -0.759 |
| O=C(Nc1cccc([N+](=O)[O-])c1)c1cc(S(=O)(=O)N2CCOCC2)cs1 | 15.1 |
| CN(Cc1ccccc1)C(=O)Nc1ccccc1 | 7.49 |
| COc1ccc(Cl)cc1C(=O)NC(=S)Nc1ccccc1N1CCOCC1 | 10.2 |
| O=C(CSCc1cc(=O)n2nc(C3CC3)sc2n1)Nc1ccc(F)cc1 | 1.78 |
| C=C(C)[C@@H]1CC=C(CN2CCC(N3CCC(C(=O)N4CCCC4)CC3)CC2)CC1 | -82.2 |
| CCOc1ccc(Nc2nc3cc(S(=O)(=O)N(CC)CC)ccc3o2)cc1 | 12 |
| Cc1cc2sc3ccccc3c(=O)c2c(C)c1O | 21.6 |
| COc1cc([C@@H]2c3cc4c(cc3[C@@H](O)[C@H]3COC(=O)[C@H]23)OCO4)cc(OC)c1O[Si](C)(C)C(C)(C)C | 17.8 |
| CCCCn1c(=NC(C)=O)c(C#N)cc2c(=O)n3cccc(C)c3nc21 | -31 |
| COc1cc(OC)cc(C(=O)NCc2ccc3c(c2)OCO3)c1 | 0.0794 |

| SMILES | hERG current change (%, negative = inhibition) at 10uM [%] |
| --- | --- |
| COc1ccc([C@@H](C)NC(=O)CCc2nnc(-c3cc(C)on3)o2)cc1 | -1.34 |
| CCc1ccc(/C=N/n2c(C3CCCCC3)n[nH]c2=S)cc1 | 19.6 |
| O=C1CN(/N=C/c2ccc([N+](=O)[O-])o2)C(=O)N1 | 11.8 |
| Cc1sc(NC(=O)C2C3CCC(C3)C2C(=O)O)c(C(N)=O)c1-c1ccc(C(C)(C)C)cc1 (stereo not shown) | -24.3 |
| O=C(Nc1ccccc1)c1nn(-c2ccccc2)c(=O)cc1C(F)(F)F | 10.6 |
| CCC(C)Sc1nnc(CSc2nc3nc(C)cc(C)n3n2)o1 (stereo not shown) | 3.48 |
| Cc1cccc(N(C)C(=O)CN(C)S(=O)(=O)c2ccc3c(c2)c(=O)n(C)c(=O)n3C)c1 | 5.06 |
| COc1ccc(C2C=C(c3ccc(Br)cc3)Nc3nc(NS(C)(=O)=O)nn32)cc1 (stereo not shown) | 4.71 |
| CN(C)C(CNC(=S)Nc1ccc(Cl)cc1)c1cccnc1 (stereo not shown) | 3.03 |
| Cn1c(/C(C#N)=C(\O)c2ccc(Cl)s2)nc2ccccc21 | 16.8 |
| CCN(C(=O)CN1CCN(C)CC1)c1c(N)n(Cc2ccccc2)c(=O)[nH]c1=O | 13.4 |
| CC1CC(C)(C)NC(=S)N1CCC(=O)N1c2ccccc2CC1C (stereo not shown) | 8.95 |
| CCN1CCc2c(OCC(=O)N3N=C(c4cccs4)CC3c3ccc(F)cc3)cccc2C1=O (stereo not shown) | -26 |
| COc1cc(CNn2nnnc2N)cc(Br)c1OCC(=O)NC(C)(C)C | -0.0211 |
| CCc1cccc(CC)c1NC(=O)C1CCN(C(=O)c2ccco2)CC1 | 2.93 |
| COc1ccc(Cn2c(SCC(=O)NCc3ccco3)nc3ccsc3c2=O)cc1 | -38.3 |
| COc1ccc(CCN(C)C2CCCN(S(=O)(=O)c3ccccc3F)C2)cc1OC (stereo not shown) | -64.3 |
| CN(C(=O)c1ccccc1)c1ccc(OCC(=O)NC2CCS(=O)(=O)C2)cc1 (stereo not shown) | 14.5 |
| Cc1ccc(/C([O-])=C(/C(=S)Nc2ccc(SC(F)F)cc2)[n+]2ccccc2)cc1[N+](=O)[O-] | -11.5 |
| COc1ccc(CCNC(=O)C(=O)NCC2CCCN2S(=O)(=O)c2cccs2)cc1 (stereo not shown) | -32.9 |
| Cc1ccc(S(=O)(=O)N2CCN(C(=O)C3Cc4ccccc4CN3C(=O)c3ccco3)CC2)cc1 (stereo not shown) | -7.36 |
| Cc1ccc(S(=O)(=O)Nc2ccncc2)c(C)c1.Cl | 12 |

| SMILES | hERG current change (%, negative = inhibition) at 10uM [%] |
| --- | --- |
| O=c1c(Cl)c(NCc2ccc(F)cc2Cl)cnn1C12CC3CC(CC(C3)C1)C2 | 16.3 |
| Cc1ccccc1C(=O)N1CCC(C(=O)Nc2cccc(F)c2)CC1 | -3.49 |
| O=C(N/N=C/c1c[nH]c2ccccc12)c1ccn(Cc2ccc(Cl)cc2Cl)n1 | 12.2 |
| Cc1ccc(C(=O)NCC(=O)OC(C)C(=O)Nc2ccc(N(C)C)cc2)cc1C (stereo not shown) | -4.22 |
| Cc1cc(C(=O)CN2C(=O)NC3(CCCCC3)C2=O)c(C)n1-c1ccc2c(c1)OCO2 | -56.4 |
| CC1(C)Cc2c(C#N)c(SCC(=O)c3ccccc3)nc(N3CCOCC3)c2CO1 | -10.9 |
| COCCNC(=O)CN(C(=O)c1ccc(N2CCCC2)nc1)c1ccc(F)c(Cl)c1 | 8.46 |
| CC(C)[C@H](CO)N(Cc1cccc(F)c1)c1nc(Nc2cccc(Cl)c2)c2ncn(C(C)C)c2n1 | 7.4 |
| Cc1cccc(C)c1OC(=O)CN(c1ccc(Cl)cc1)S(C)(=O)=O | 16.3 |
| Cc1cc(=O)n2[nH]c(SCc3ccc(Cl)cc3)nc2n1 | -7.55 |
| COc1ccc(/C=N/n2c(SC)nnc2-c2ccccc2)cc1C | -27.8 |
| N#Cc1nc(NCC(F)F)nc(Nc2cc(F)cc(F)c2)n1 | -3.27 |
| O=C(c1ccc(Cl)cc1)N1CCC2(CC1)OCCO2 | 13.2 |
| COc1cc(NC(=O)CN2CCCCC2)c(C)cc1[N+](=O)[O-] | 3.48 |
| N#Cc1c(NCCO)ccc([N+](=O)[O-])c1NCCO | -2.88 |
| C(#Cc1ccccc1)C[N+]1(CC#Cc2ccccc2)CCCCC1.[Br-] | -55.8 |
| CNC(=O)CCN(Cc1ccco1)S(=O)(=O)c1ccc(OC)c(OC)c1 | 14.1 |
| Cc1ccc(NC(=O)CCC(=O)NNC(=O)NC23CC4CC(CC(C4)C2)C3)cc1C | 7.26 |
| CCOC(=O)N1CCc2c(sc(NC(=O)c3ccc(Cl)s3)c2C(N)=O)C1 | 5.77 |
| Cc1ccc(-c2nc3cccnc3s2)cc1NS(=O)(=O)c1ccc2c(c1)OCCO2 | 5.11 |
| COc1cc(/C=N/NC(=O)c2ccc3ccccc3c2)ccc1Oc1ccc([N+](=O)[O-])cn1 | -14 |
| COc1ccc(Cn2c(-c3ccc(OC)c(O)c3)nc3ccccc32)cc1O | 0.823 |

| SMILES | hERG current change (%, negative = inhibition) at 10uM [%] |
| --- | --- |
| CNc1oc(Cc2ccccc2)nc1S(=O)(=O)c1ccccc1 | 3.18 |
| CC(C)[C@H](NC(=O)OCc1ccccc1)C(=O)OCc1cc(=O)oc2cc(O)ccc12 | -46.7 |
| Cc1ccc(NC(=O)C2CCN(S(=O)(=O)c3c(C)noc3/C=C/c3ccco3)CC2)nc1 | -21.7 |
| COc1ccc(C/C(O)=C(\C#N)c2nc3ccccc3s2)cc1 | 11.6 |
| CSCC[C@H](NC(=O)OC(C)(C)C)C(=O)NCC1CCC(C(=O)N[C@@H](Cc2ccccc2)C(=O)O)CC1 (stereo partly shown) | 13.4 |
| C[C@@H]1CCC(=O)N(CC[C@H](Sc2ccccc2)c2ccccc2)CC1 | -5.35 |
| O=C(Nc1ccc2ccccc2n1)Nc1cccs1 | 14.5 |
| Cc1ccnc(NC(=O)CCCOc2ccccc2)c1 | 19 |
| CCOc1ccc(C2C(C(=O)c3ccco3)=C(O)C(=O)N2CCN2CCOCC2)cc1 (stereo not shown) | 7.83 |
| COc1ccc(/C=C/C(=O)NCc2cn(C)nc2C)cc1COc1ccc(Br)cc1 | 7.33 |
| C[N+]1(CCOc2ccc([N+](=O)[O-])cc2)CCOCC1.[I-] | -25 |
| Brc1ccccc1OCCCN1CCCC1.O=C(O)C(=O)O | -12.4 |
| Cc1cccc(C(P(=O)(c2ccccc2)c2ccccc2)P(=O)(c2ccccc2)c2ccccc2)n1 | -4.25 |
| Nc1c(Cl)c(Cl)nc(C(=O)OCC(=O)NC2CCCCC2)c1Cl | -58.2 |
| Cc1ccc(C(=O)N2c3ccccc3CC2C)o1 (stereo not shown) | 21.7 |
| O=C(NC1CCCCC1)C(c1ccc(Cl)cc1)N(C(=O)c1cnccn1)c1ccc2c(c1)OCO2 (stereo not shown) | -17.1 |
| CCCCNC(=O)c1ccc(CS(=O)(=O)c2ccc(C)cc2)o1 | 15.1 |
| CCOc1ccc(Br)cc1C1C(C(=O)OC)=C(N)Oc2cc(N(C)C)ccc21 (stereo not shown) | 21.4 |
| CCCn1nc2cc(C(=O)NCCc3cccs3)ccc2c1OCC | -12.3 |
